The record followed here is paper PMC12203670.

Amino acid sequences for entries named in this document (tags omitted). A change or cut given only in a name is not applied to a line headed by its entry. Chains listed by the source or under a name are the forms on record and can include a tag or linker.
PKM2 (pyruvate kinase M2), endogenous in NRVMs (P11980-2, form named): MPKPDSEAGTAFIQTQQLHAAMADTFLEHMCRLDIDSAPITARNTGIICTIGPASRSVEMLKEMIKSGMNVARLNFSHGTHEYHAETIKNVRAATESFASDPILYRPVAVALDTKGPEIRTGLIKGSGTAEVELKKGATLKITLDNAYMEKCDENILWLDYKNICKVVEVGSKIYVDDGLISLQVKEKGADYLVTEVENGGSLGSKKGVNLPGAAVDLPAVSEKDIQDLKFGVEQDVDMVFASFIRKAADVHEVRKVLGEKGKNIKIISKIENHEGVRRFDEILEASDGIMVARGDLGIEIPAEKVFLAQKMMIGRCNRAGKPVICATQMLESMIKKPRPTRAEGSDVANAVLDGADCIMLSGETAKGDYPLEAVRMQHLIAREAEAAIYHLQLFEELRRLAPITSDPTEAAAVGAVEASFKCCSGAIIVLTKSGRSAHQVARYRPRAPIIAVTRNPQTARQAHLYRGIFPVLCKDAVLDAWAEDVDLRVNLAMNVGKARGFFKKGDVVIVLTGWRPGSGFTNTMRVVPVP
UniProt P52480: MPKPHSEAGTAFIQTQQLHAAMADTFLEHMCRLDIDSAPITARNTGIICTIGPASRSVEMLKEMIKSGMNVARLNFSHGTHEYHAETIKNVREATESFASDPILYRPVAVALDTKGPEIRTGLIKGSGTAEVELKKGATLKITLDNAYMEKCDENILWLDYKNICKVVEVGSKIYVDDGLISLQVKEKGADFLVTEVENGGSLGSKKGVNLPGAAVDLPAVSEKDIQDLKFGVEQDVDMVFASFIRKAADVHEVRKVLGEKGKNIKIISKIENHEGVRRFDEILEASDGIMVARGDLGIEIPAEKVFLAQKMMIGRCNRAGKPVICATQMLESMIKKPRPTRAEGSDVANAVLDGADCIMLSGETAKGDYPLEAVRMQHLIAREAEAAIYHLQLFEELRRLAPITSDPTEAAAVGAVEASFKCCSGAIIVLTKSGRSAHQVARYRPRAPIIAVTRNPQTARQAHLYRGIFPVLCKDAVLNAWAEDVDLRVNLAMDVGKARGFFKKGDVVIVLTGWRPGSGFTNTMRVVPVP

These are yes or no findings as the source states them, for the method shown. In cells and extracts the contact can be indirect. Some entries that bind do so weakly or less than the wild type. Sequences can lack the tags named with a protein.

Test [1] deals with T1, Flag-tagged MTX2 (metaxin 2), adenovirus, in NRVMs (UniProt O88441).
T1 sequence: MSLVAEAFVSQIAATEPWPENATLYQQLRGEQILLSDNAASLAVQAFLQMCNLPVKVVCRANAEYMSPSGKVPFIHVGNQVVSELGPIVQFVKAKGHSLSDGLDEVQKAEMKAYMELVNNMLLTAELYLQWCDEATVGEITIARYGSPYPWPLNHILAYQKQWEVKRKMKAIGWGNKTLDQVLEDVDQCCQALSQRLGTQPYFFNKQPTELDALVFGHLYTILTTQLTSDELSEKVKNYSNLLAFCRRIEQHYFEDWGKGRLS
The test is described as follows: co-IP; lysates of NRVMs infected with Ad-Flag-Mtx2; immunoprecipitated with anti-Flag antibody; blotted for endogenous PKM1 and PKM2.

Another test has as its target T2, Flag-MTX2 (Δ154-195 AA) (UniProt O88441).
T2 sequence: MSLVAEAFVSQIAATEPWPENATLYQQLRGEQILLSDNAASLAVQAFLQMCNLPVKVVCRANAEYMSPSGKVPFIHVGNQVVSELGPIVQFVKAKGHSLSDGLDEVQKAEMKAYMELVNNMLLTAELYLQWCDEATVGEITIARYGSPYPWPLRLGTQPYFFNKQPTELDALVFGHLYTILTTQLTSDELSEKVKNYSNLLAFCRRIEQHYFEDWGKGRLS
The test is described as follows: co-IP; Mtx2 KO H9C2 cells co-expressing Flag-MTX2 (full length or deletion mutants) and GST-PKM2; whole-cell lysates immunoprecipitated with anti-FLAG antibody.

Test [2] deals with T3, Flag-MTX2 (full-length MTX2), plasmid, in Mtx2 KO H9C2 cells (UniProt O88441).
T3 sequence: T1 sequence
Described as above.

The next test concerns the target T4, Flag-MTX2 (Δ41-161 AA) (UniProt O88441).
T4 sequence: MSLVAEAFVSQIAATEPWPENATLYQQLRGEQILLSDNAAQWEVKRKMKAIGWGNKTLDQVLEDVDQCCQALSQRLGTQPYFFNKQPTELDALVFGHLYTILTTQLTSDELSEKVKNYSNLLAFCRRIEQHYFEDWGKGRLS
Described as above.

Regarding “PKM2 (pyruvate kinase M2), endogenous in NRVMs (from UniProt P11980-2 1-531) (enzyme)”, in test [1], the binding result is on record as “binds”.

For the substance “GST-PKM2, plasmid, in Mtx2 KO H9C2 cells (from UniProt P52480 1-531) (enzyme)”, the figures for the binding entry (with Flag-MTX2 (Δ154-195 AA); in test [2]; with Flag-MTX2 (Δ41-161 AA)) were “binds”, “binds” and “no binding”, respectively. In the case of “PKM1 (pyruvate kinase M1), endogenous in NRVMs (from UniProt P11980-1 1-531) (enzyme)”, the binding result in test [1] is reported as “no binding”.
